Experimental data: PMC9600267, “The Antibacterial Type VII Secretion System of Bacillus subtilis: Structure and Interactions of the Pseudokinase YukC/EssB” (mBio, 2022)
These are yes or no findings as the source states them, for the method shown. For part of these data: Where a sequence is shown, tags or fusion partners need not be part of it.

Protein sequences, listed by entry. Tags and fused reporters are not part of them. Residues count along the entry.
UniProt P42296, residues 1-97: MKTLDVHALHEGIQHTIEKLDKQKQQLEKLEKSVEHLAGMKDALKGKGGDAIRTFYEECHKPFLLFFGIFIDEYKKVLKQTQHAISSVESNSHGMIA

How the values were obtained:
Test in all cases: two-hybrid; bacterial two-hybrid (BACTH) in E. coli BTH101; T25 (pKT25/pKNT25) and T18 (pUT18/pUT18C) fusions; spots on LB with X-Gal and IPTG, 25°C, imaged after 48 h
[1] = target: T1, YueC, bacterial two-hybrid fusion (Bacillus subtilis 168) (UniProt O32100)
T1 sequence: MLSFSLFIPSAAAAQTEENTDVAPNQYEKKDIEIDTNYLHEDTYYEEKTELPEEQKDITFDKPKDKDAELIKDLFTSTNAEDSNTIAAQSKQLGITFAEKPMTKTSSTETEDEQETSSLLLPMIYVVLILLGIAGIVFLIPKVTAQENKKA

[2] = target: T2, YueB (full length), bacterial two-hybrid fusion (Bacillus subtilis 168) (UniProt O32101)
T2 sequence: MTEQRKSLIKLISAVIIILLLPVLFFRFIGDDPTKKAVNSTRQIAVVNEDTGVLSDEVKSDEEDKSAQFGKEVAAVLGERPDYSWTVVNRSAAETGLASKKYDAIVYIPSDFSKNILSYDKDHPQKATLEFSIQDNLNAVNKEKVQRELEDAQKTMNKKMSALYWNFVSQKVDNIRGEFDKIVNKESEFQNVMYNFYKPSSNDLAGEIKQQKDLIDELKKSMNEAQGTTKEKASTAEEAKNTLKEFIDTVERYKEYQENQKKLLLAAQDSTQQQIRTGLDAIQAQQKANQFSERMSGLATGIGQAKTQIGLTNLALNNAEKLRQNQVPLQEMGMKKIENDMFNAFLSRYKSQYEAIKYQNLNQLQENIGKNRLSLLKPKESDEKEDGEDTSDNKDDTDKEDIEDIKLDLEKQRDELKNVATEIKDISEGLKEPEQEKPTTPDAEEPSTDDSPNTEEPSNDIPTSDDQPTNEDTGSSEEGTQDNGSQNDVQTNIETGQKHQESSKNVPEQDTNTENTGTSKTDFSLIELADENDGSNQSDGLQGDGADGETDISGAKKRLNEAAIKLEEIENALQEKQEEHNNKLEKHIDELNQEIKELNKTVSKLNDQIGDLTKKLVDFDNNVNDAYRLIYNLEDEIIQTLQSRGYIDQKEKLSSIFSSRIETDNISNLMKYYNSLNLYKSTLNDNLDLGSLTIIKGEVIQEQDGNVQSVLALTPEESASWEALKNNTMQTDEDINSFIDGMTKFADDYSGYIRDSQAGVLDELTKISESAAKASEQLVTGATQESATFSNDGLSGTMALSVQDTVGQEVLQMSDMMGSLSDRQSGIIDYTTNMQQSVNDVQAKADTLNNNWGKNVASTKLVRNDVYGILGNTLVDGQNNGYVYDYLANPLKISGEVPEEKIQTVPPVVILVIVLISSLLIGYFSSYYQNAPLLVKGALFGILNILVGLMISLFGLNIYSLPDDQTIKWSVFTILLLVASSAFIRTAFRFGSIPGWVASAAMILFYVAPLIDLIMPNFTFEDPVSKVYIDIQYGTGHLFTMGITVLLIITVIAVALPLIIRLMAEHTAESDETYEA

[3] = target: T3, YukD, bacterial two-hybrid fusion (Bacillus subtilis 168) (UniProt P71071)
T3 sequence: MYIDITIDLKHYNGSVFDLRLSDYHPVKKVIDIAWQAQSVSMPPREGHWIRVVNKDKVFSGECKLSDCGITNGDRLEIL

Measured: binding

YxiD N-terminal 97-amino-acid region (YxiDN), bacterial two-hybrid fusion (from UniProt P42296 1-97) (domain or fragment)
no binding: all assays above
